# Test results from PubChem BioAssay (NCI).
# A structure can be active in one record and inactive in another.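 Results are percent growth after 48 hours of single-concentration exposure. 100 means growth as in untreated cells, lower positive values show inhibition; negative values down to -100 show cell death.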 Some entries of the source have several records that differ or are many. This list holds those alone. How the source made its calls: active means growth percent below 10; inactive means the rest. There may be further records. This drug was run again and again over the years, at the concentration stated with the values; one value stands for one run. Counts like (3×) stand for listed records that agree.
# What was measured:
# Assay in all cases: NCI-60 one-dose screen, 48 h (100 = growth as untreated, 0 = no growth, -100 = all killed)
# UO-31 renal = conditions: 2.5 mM
# TK-10 renal = conditions: 2.5 mM
# ACHN renal = conditions: 2.5 mM; runs of 1991
smiles,measurement,setting,value
O=c1[nH]cc(F)c(=O)[nH]1,growth,UO-31 renal; runs of 1997,"active: -39.3, -35.6, -44.5, -27, -56.9, -37.4, -75.6, -24.2, -30.1, -42.5, -1.24, -52.7, -0.0809, 5.42, 2.39, -23.7, -3.26, -30.3, -34.2, 3.12, -4.77, 5.44, 4.93, -7.3, 0.556, 8.35, 7.6, -49.1, -41.8, 6.18, -0.804, -66% and inactive: 37.8, 21.3 (2×), 14.2, 29.7, 21.1, 14.3, 16.4, 20.8, 21.9, 18.5, 11.3, 18.8, 14.5%"
same,growth,UO-31 renal; runs of 1998,"active: 9.11, 1.36, 7.66, -23.4, 6.87, -1.86, -5.07, -22.2, -53.4, -0.513, -18.9, -46, 0.281, -35.2, -10, 1.69, 5.77, -35.1, -15.3, 5.91, -30, -40.3% and inactive: 26.4, 12.1, 12.5, 10%"
same,growth,UO-31 renal; runs of 1999,"active: 4.79, -0.968, -25.4, -71.6, -7.22, -25.7, -100 (3×), -90.9, -93.7, -95.9, -91.3, -92, -91.7, -89.7%"
same,growth,UO-31 renal; runs of 2000,"active: -73.2, -77.5, -70.1, -96.5%"
same,growth,TK-10 renal; runs of 1991,"inactive: 42.7, 20.4, 36.6, 41.3, 10.2, 17.9, 54.3, 35.3, 37.8, 31% and active: -6.03, -15.3, -1.32, -33.2, -1.03, -40.3, 1.81%"
same,growth,TK-10 renal; runs of 1992,"inactive: 24.8, 43, 28.9, 42.7, 35.4, 38.2 (3×), 14.2, 33.6, 36.5, 24.2, 37.9, 42, 31.9, 29.2, 37.2, 56.6, 21.9, 31.8, 40.1 (3×), 18, 36.1, 30.2, 39.5, 29.1, 10.1 (2×), 20.2, 21.8, 47.5, 35, 71.2, 28.2, 39.6, 25.3, 51.5, 43.8, 41.8 (2×), 10.2, 12, 75.1, 31.6, 35.1, 74.6, 37.4, 29.8, 34.8, 48.4, 14.6, 48.8, 13.9, 27.6, 26.2, 45.9, 34.9, 34.3, 34.1, 11.3, 10.4, 11.7, 25, 81.4, 28.6, 25.7, 54.8, 31.7, 41.6, 38.4, 36.3, 16.9, 24.9, 11.6, 32.7, 27.7, 17.5, 34.4, 14.9, 28.7, 27.8, 41.2, 30, 25.2, 15.8% and active: -0.479, -5.32, -2.45, -2.09, -0.238, 8.33, 9.39, -12.6, -7.76, -10.9, -19.9, 5.81, -12.7, 5.86, -3.73, -16.9, 9.88, 5.61, 6.48, 2.61, 6.56, -9.71, -4.72, -0.534, -29.6, -10.1, -1.3, -3.17, -20.9, -19.1%"
same,growth,TK-10 renal; runs of 1993,"inactive: 56.1, 44.7, 28.9, 44.2, 43.7, 27.7, 33.4, 21.8, 32.7, 31.5, 43.1, 46.7, 41.8, 42.6, 33.2, 45.4, 57.8, 60.8, 42.7, 64.2, 32.9, 34.2, 14.3, 70.2, 42.4, 28.6, 20.8, 74.1, 20.9, 77.4, 14.4, 106, 12.3, 23.2, 16.8, 37.2, 21, 47.2, 34.1% and active: 2.17, 1.55, -13.4, -4.46, -2.9, -5.72, -0.931, -1.06%"
same,growth,TK-10 renal; runs of 1994,"inactive: 53.4, 43.8, 21.8, 34.7 (2×), 22.9, 38.8, 35.4, 46.2, 19.1, 62.1, 24.4, 39.4, 43.1, 37.8, 29.3, 59.4, 29.8, 33.4, 35.8, 30.1, 54.7, 30.8, 30.5, 26.2, 87.6, 33.2, 14.9, 52.6, 20.3, 39.6% and active: -5.07%, -4.16%, -25.4%"
same,growth,TK-10 renal; runs of 1995,"inactive: 45.6, 29.4, 29.9, 28.3, 71.1, 45.5, 37.9, 67, 15.4, 28.5, 63.2, 49.5, 69.3, 65, 45.8, 25.5, 74, 78.7, 17.7, 50.9, 48.6, 37.3, 59, 37.4, 50.1, 29.6, 32.1, 60.9, 11.9, 38.5, 38.3, 43.9, 14.2, 17.3, 23.9% and active: 0.941, -2.48, -8.98, -11.8, 8.78, -28.5, -13.8, 1.11, -14.1, -5.96, -14, -4.39, -3.08, -100, -78.7%"
same,growth,TK-10 renal; runs of 1996,"inactive: 15.5 (2×), 17.1, 32.8, 49, 12.1, 112, 25.9, 110, 18.6, 12.8, 58.5, 27.4, 40.1, 46.1, 190, 16.8, 33.1 (3×), 31.1, 30.8 (2×), 46.5, 39.1, 38.6, 48.5, 58.3, 46.7, 37.1, 41.3, 48 (2×), 43, 24.7, 47.8, 41.9, 16.5, 56.5, 47.7, 45.3, 46.6, 81.8, 39.2, 52.3, 54.4, 28.6, 43.7, 49.9, 16.7, 99.2, 12.9, 21.9, 34.7, 62.3, 36, 29.3, 36.9, 39.7, 45.5, 52.6, 31.9, 13, 18.2, 45, 33.7, 29.6, 27.1, 37.6, 42.8, 20.7, 14.8, 24.1, 62.7, 50.4% and active: -42.5, 4.52, -75.8, -100 (6×), -84.6, -6.28, -65.5, -79.2, -61.2, -3.19, 5.24, 8.05, -91.6, -6.17, -34.7, 4.58, -37.1, 1.73, -91.7, -80, -82.4, -79.1, -85, -81.5, 7.83, 2.53, 9.14, -12.7, 0.719, -2.08, -8.76, 4.35, 2.69, 1.89, -6.38%"
same,growth,TK-10 renal; runs of 1997,"active: -92.5, 6.14, -0.564, 1.09, 4.53, -4.01, -69.4, -23.3, -20.9, 8.34, -100, -10.8, 0.511, -8.03, 6.74, -36.9, -3.06, -10, -17.5, -31.4, 5.83, -34.9, 6.85, -7.93, -74.3, -85.2, -2.77, 6.05, 0.323, 0.52, -29.2% and inactive: 14, 12.5, 21.8, 28, 13.5, 45.5, 57.8, 47.5, 21.9, 15.1, 12.2, 27.7, 22.8, 16.2, 20.2, 14.6, 27.3, 34.2, 14.4, 29.7, 27.6, 15.8, 20.7, 111, 102, 27.4%"
same,growth,TK-10 renal; runs of 1998,"inactive: 99.4, 28, 39.9, 38.8 (2×), 37.5 (3×), 38, 35.3, 50.3 (2×), 43.6, 52.3, 53.4, 35.1, 59.6, 46.3, 18.6, 64, 69, 58.1, 81, 53.3, 55.5, 58.8, 94.4, 46.7, 37.7, 23.1, 41.5, 51.6, 38.2, 50.4, 11.8, 35.2, 40.2, 60.8, 38.1, 31.8, 36.8, 65.8, 20.9, 26.4, 27.5, 32.6, 14.2, 40.9, 21, 22.1, 12.2, 43, 17.4, 15.7, 32.3, 16.3, 21.6, 38.5, 34.6, 47.3% and active: -86.2, -84.2 (2×), -83.6, -7.68, 1.13, -0.247, 5.84, -3.9, 2.99%"
same,growth,TK-10 renal; runs of 1999,"inactive: 55, 48.4, 50.1, 31.1, 14.2, 17.4, 28.2, 44.6, 29.1, 23.6, 45.6, 27.4, 28.1% and active: -12.2, -100, -50.7, -41.4, -43.8, -58.3, -55.4, -75.6, -66.7, -58.9%"
same,growth,TK-10 renal; runs of 2000,"active: -70.1, -48.3, 1.08, -66.8%"
same,growth,ACHN renal,"active: 6.59, 4.27, -14, 6.91, 7.69, -24.6, 6.58, 9.29, -20.1, -42% and inactive: 11.4, 11.6, 11.9 (2×), 12.2, 13.8, 17.9, 10.8, 18.6%"
